The values below come from PubChem BioAssay AID602293 (National Center for Advancing Translational Sciences (NCATS), 2012).

Hit rate of the full screen: of about 1,300 compounds, about 30 (2%) were called active. Roughly 10% stayed inconclusive and do not appear here. Calls follow the shape of the dose curve; as a rule, active = well fitted inhibition curve with a large enough effect; inconclusive = small, poorly fitted or top-dose-only effect; inactive = flat fitted curve, though single readings scatter. Some of the results follow.
% is scaled to controls: 0 for no effect and ±100 for the full control effect; potency is read from the fitted curve at half-maximal effect.

This experiment in a line: qHTS for antagonists of the Thyroid Stimulation Hormone Receptor: Hit Validation in HTRF Activity in a Luteinizing Hormone Receptor Cell Line. The conditions noted are these: LHR-expressing cell line, cAMP HTRF, antagonist mode; series mostly up to 58 µM; activity change, negative = inhibition: at the top concentration. The text has this: The thyroid-stimulating hormone receptor (TSHR) is a member of the 7 trans-membrane-spanning receptor (7TMR) family of cell surface receptors. TSHR-mediated hyperthyroidism is important in thyroid pathology. The development of small molecule antagonists of TSHR may lead to therapeutic approaches for TSHR-mediated hyperthyroidism caused by constitutively activating mutations or stimulating auto-antibodies associated with Graves' disease. Graves' disease is the leading cause of hyperthyroidism and is caused by autoantibodies that stimulate TSHR (TsAbs) causing thyroid growth and unregulated overproduction of thyroid hormones and existing treatments have liabilities (agranulocytosis). In addition, TSHRs are known to be expressed in multiple extrathyroidal tissues including bone, brain, kidney, testis, fat and cells of the immune system but the role of the TSHR in these tissues is not clear. Therefore, TSHR antagonists/inverse agonists could be used as probes of extrathyroidal TSHR function. Finally, TSHR inverse agonists, which are a subclass of antagonists that inhibit agonist-independent (or basal or constitutive) TSHR signaling, could be used to inhibit TSH-independent signaling in patients with recurrent or metastatic thyroid cancer who are receiving thyroid hormone to suppress TSH.
In collaboration between scientist from the NCGC and the NIDDK, a miniaturized HTRF high-throughput screen was developed. It's a cell based assay, where an anti cAMP antibody contains a fluorescent cryptate tag (excitation 337 nm; emission 620 nm) and the acceptor is cAMP-d2 (excitation 620 nm; emission 665 nm). When antibody and cAMP-d2 interact and are excited by a 337 nm light, a FRET occurs resulting in emission at 665 nm. The assay is competition between cAMP-d2 and cAMP (from the cell lysate). The homogeneous protocol allows for one step dispense after stimulation that is automation friendly. In order to confirm specificity of the compounds to the TSHR, a confirmatory assay was conducted on a similar family member, the Luteinizing Hormone (LH) receptor, transfected into a HEK 293 cell line, using an orthogonal detection technology to measure cAMP stimulation: antibody-based Homogeneous Time Resolved Fluorescence (HTRF).
NIH Chemical Genomics Center [NCGC]
NIH Molecular Libraries Probe Centers Network [MLPCN]
Assay Provider: Marvin Gershengorn, NIDDK
Homogeneous Time Resolved Fluorescence (HTRF) cAMP Assay. HEK 293 cells stably transfected with a vector containing the LH receptor and maintained under hygromycin selection were obtained from the laboratory of Dr. Marvin Gershengorn. Compounds were assayed using a HTRF cAMP detection kit (Cisbio) on the LH receptor transfected cell line. Briefly, 750 cells were plated in 2.5 ul/well of complete media (DMEM containing 10 % FCS, and 100 uM RO 20-1724) in 1536 well solid bottom white plates and 23 nl/well compound in DMSO solution or controls was added. Following 30 minute incubation at room temperature, 2.5 ul/well of labeled d2 cAMP and 2.5 ul/well of anti-cAMP antibody (both diluted 1:20 in lysis buffer) were added to each well using a flying reagent dispenser (Aurora Discovery, San Diego) . Plates were measured using the Envision plate reader (PerkinElmer, Boston, MA) with excitation at 330 nm and emissions of 615 nm and 660 nm.
`N#C/C(=N\Nc1ccc(S(=O)(=O)N2CCCCCC2)cc1)C(N)=S`: the “activity change, negative = inhibition” value was inactive: 3.27%.
The same measure, in the same setting: to `CCOC(=O)COc1ccc(Br)cc1/C=C/c1[nH]c(=O)[nH]c(=O)c1[N+](=O)[O-]` belongs inactive: 1.67%; to `CC(C)(C)c1cc2nc3c(c(=O)n2[nH]1)CN(Cc1ccccc1)C3=O`, inactive: 0.799%.
Same read-out and setting: to `COc1ccc(NC(=O)c2c(F)cccc2F)cc1S(=O)(=O)Nc1ccc(Br)cc1` belongs inactive: 1.89%; to `CCOc1cc(/C=C/c2ccc3cccc([N+](=O)[O-])c3n2)ccc1OCC(=O)N(C)C`, inactive: -6.45%; to `COc1cccc(OC)c1C(=O)Nc1ccc2c(c1)N(S(=O)(=O)c1cccs1)CCC2`, inactive: -1.97%.
On the same count and under the same terms, to `CCN1C(=NCc2ccc(OC)cc2)N[C@@H](CCc2ccccc2)[C@H](C(=O)NCc2ccc(OC)cc2)[C@H]1C` belongs inactive: -0.237%; to `COc1ccc(NC2CCCN(C(=O)CCc3cccc(F)c3)C2)cc1` (stereo not given), inactive: 2.78%.
`Cc1nn(S(=O)(=O)c2ccc(F)cc2)c(C)c1S(=O)(=O)N1CCOCC1`: the “activity change, negative = inhibition” value was inactive: -0.937%.
Still for that read-out and setting: to `O=C(COc1ccc(Cl)cc1)Nc1ncc([N+](=O)[O-])s1` belongs inactive: -0.689%; to `Cc1cccc(N2CCN(C(=O)C3(S(=O)(=O)c4ccc(Cl)cc4)CC3)CC2)c1C`, inactive: 1.97%.
Take `Cc1ccc(CNC(=O)CSc2nnc3c(n2)[nH]c2ccccc23)cc1`: the “activity change, negative = inhibition” value was inactive: -0.907%.
Take `Cc1ccccc1NC(=O)Cc1nc(COC(=O)c2cccc([N+](=O)[O-])c2)cs1`: the “activity change, negative = inhibition” value was inactive: 3.09%.
Take `N#C/C(=C\c1ccc(O)c([N+](=O)[O-])c1)c1nc2ccccc2s1`: the “activity change, negative = inhibition” value was inactive: -0.137%.
On the same count and under the same terms, to `COc1cc(/C=C(\C#N)c2ccccn2)ccc1OCc1ccc(Cl)cc1` belongs inactive: -1.94%; to `CCOc1ccc(CNC(=O)CCCn2nc(CC)n3c(cc4occc43)c2=O)cc1`, inactive: 0.605%; to `COc1ccc(CN(C)C(=O)COC(=O)c2cnc(Cl)c(Cl)c2)cc1`, inactive: 1.72%.
Take `O=S(=O)(NCc1csc(-c2ccccc2)n1)c1ccc(Cl)s1`: the “activity change, negative = inhibition” value was inactive: 2.31%.
Same read-out and setting: to `O=C(COC(=O)C12CC3CC(CC(Br)(C3)C1)C2)Nc1cccc(S(=O)(=O)N2CCOCC2)c1` belongs inactive: 0.464%; to `COC(=O)CN(c1ccc(C)cc1)S(=O)(=O)c1ccc2c(c1)n(C)c(=O)c(=O)n2C`, inactive: 0.47%.
The same measure, in the same setting: to `COc1cc(OC)c(NC(=O)Cn2cnc3sc(C)c(S(=O)(=O)N4CCOCC4)c3c2=O)cc1Cl` belongs inactive: 1.34%; to `CC(=O)N1c2ccc(S(=O)(=O)N(C)CC(=O)N(C)Cc3ccccc3)cc2CC1C` (stereo not given), inactive: 1.01%; to `Cc1ccc(S(=O)(=O)NCCNc2ccc([N+](=O)[O-])cc2)cc1`, inactive: 3.17%.
On the same count and under the same terms, to `Brc1ccc(CNc2ccc3ncccc3c2)cc1` belongs inactive: 0.575%; to `O=S(=O)(c1ccc(Cl)cc1)N1CCN(c2ncnc3sccc23)CC1`, inactive: -1.02%; to `Cc1ccc(S(=O)(=O)Oc2ccc(/C=C(/NC(=O)c3ccccc3)C(=O)Nc3ccccc3)cc2)cc1`, inactive: 2.77%.
`Cc1ccc(C(=O)NCCNc2ncc(C(F)(F)F)cc2Cl)cc1[N+](=O)[O-]`: the “activity change, negative = inhibition” value is inactive: 0.346%.
For `COC(=O)c1ccc(CN2C(=O)NC(Cc3c[nH]c4ccccc34)C2=O)cc1` (stereo not given), the “activity change, negative = inhibition” value is inactive: 0.496%.
On to `COc1ccc(CC(=O)Nc2cccc(-c3nnc(-c4cccc(C)c4)o3)c2)cc1OC`, for which the Potency is active: 21.3 µM.
Regarding `CCC1Sc2ccc(S(=O)(=O)CCC(=O)Nc3ccccc3Cl)cc2NC1=O` (stereo not given), the “activity change, negative = inhibition” value is inactive: 0.151%.
For the compound `O=C(OCCN1C(=O)c2cccc3c(N4CCOCC4)ccc(c23)C1=O)c1cccc(Cl)c1`, the “activity change, negative = inhibition” value was inactive: -6.52%.
On the same count and under the same terms, to `COc1cccc(OCC(O)CN2CC(C)CC(C)C2)c1` (stereo not given) belongs inactive: 0.609%; to `Cn1c(N)c(Sc2ccccc2[N+](=O)[O-])c(=O)n(C)c1=O`, inactive: -0.209%.
With `COc1ccc(-c2c(C(F)(F)F)[nH]n3c(=O)cc(-c4ccccc4)nc23)cc1`, the “activity change, negative = inhibition” value was inactive: -3.49%.
On to `CCc1ccc(-c2nc(SCC(=O)NC3CCCC3)n[nH]2)cc1`, for which the “activity change, negative = inhibition” value was inactive: 0.442%.
Same read-out and setting: to `N#Cc1ccc(CN2CCN(C(=O)c3ccc(S(=O)(=O)N4CCCCCC4)cc3)CC2)cc1` belongs inactive: -4.02%; to `CCCCc1c(C)nc2nc(SCc3ccc(Cl)cc3)[nH]n2c1=O`, inactive: 1.33%.
Turning to `CCSc1nsc(NC(=O)Nc2cccc(OC)c2)n1`, the “activity change, negative = inhibition” value was inactive: 1.44%.
Same read-out and setting: to `Cc1ccc(CN2CCc3c(OCc4ccc(F)cc4)cccc3C2=O)cc1` belongs inactive: -5.07%.
Still for that read-out and setting: to `CCN(C(=O)CN1C(=O)COc2ccc(S(=O)(=O)N3CCOCC3)cc21)c1ccc(OC)cc1` belongs inactive: 2.71%; to `C=C(C)C1CCC(C)=C1COC(=O)Nc1ccccc1` (stereo not given), inactive: -3.2%.
The same measure, in the same setting: to `Cc1ccc(CCNC(=O)C2CC(c3cc(C(F)(F)F)cc(C(F)(F)F)c3)=NO2)cc1` (stereo not given) belongs inactive: -1.6%; to `O=C(c1ccc2c(c1)OCO2)N1CCN(S(=O)(=O)c2ccc(Cl)cc2)CC1`, inactive: 3.33%.
As to `O=C(NCCc1ccccc1)c1cccnc1N1CCCCCC1`, the “activity change, negative = inhibition” value was inactive: -0.194%.
For `Cc1cc2oc(=O)cc(CSc3nnc(-c4cccs4)o3)c2cc1C(C)C`, the “activity change, negative = inhibition” value is inactive: -1.67%.
On the same count and under the same terms, to `Cc1cccc(OCc2nnc(SCC(=O)N3c4ccccc4CCc4ccccc43)o2)c1` belongs inactive: -0.426%; to `CC1=C(C(=O)OC(C)(C)C)C(c2ccc3ccccc3c2)NC(=O)N1C` (stereo not given), inactive: 0.935%.
Same read-out and setting: to `CC(=O)c1cccc(NC(=O)CCCSc2ccccc2)c1` belongs inactive: 0.942%; to `Oc1ccc(N=Nc2nccs2)c(O)c1`, inactive: 1.22%; to `CC1SCC(=NOCc2ccccc2)CS1` (stereo not given), inactive: 2.24%.
